# This sample is rich in variants without activity.
# B1: TPR 5TU (parent)
# chain: GGAUCUUCUCGAUCUAACAAAAAAGACAAAUCUGCCACAAAGCUUGAGAGCAUCUUCGGAUGCAGAGGCGGCAGCCUUCGGUGGCGCGAUAGCGCCAACGUUCUCAACUAUGACACGCAAAACGCGUGCUCCGUUGAAUGGAGUUUAUCAUG
# Variants of: B1
# Experiment: polymerase ribozyme fitness, log enrichment relative to wild type (log ratio); higher = more active; in vitro selection for triplet polymerase activity
# Summary of the method: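 Fitness is a logarithmic measure of how a genotype enriched relative to the wild type, with replicate averages weighted by inverse variance. The logarithm uses base 2, and enrichment came from Illumina sequencing of input and output libraries. Those libraries were PCR-built, transcribed mutants of each subunit of a heterodimeric triplet polymerase ribozyme, passed through one triplicate in vitro selection round that included frozen incubation at −7 °C, gel excision of extended constructs and streptavidin-bead capture. Genotypes were kept only if they had ≥10 input reads and ≥1 read per output.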
row,Variant,polymerase ribozyme fitness (log ratio)
1,C8G C18G G84C C105A G126A,≤ -4.2
2,C8G U9C G94U A120G C149U,≤ -4.2
3,C8A C57U U77A C96U A137C,≤ -4.2
4,C8A G50A U56C G92C A106C A120G,≤ -4.2
5,C8G A20U U45A G81C G92U G100C,≤ -4.2
6,C8A A12G C36A G50U U55A,≤ -4.2
7,C8A A12G A41C A47G U53A G143U U151C,≤ -4.2
8,C8A A30U C93U C99G C129A G136A G141C,≤ -4.2
9,C8A U55A C72G G81U C85U A115U,≤ -4.2
10,C8G A41U A49C G62A C79U C85U C96U C114G A115G,≤ -4.2
11,C8A A28C U102A U146G,≤ -4.2
12,C8A C14G U55A C85U G88U A138U,≤ -4.2
13,C8G G88C,≤ -4.2
14,U7G G11C A37C C72U G80C A97G U144C,≤ -4.2
15,C8A C54U A66U C85G C93A A106C,≤ -4.2
16,C8A A12U C14G C18U A30G C76G A120U C129A U139A A150U,≤ -4.2
17,U7G C57G A60U C69A G83A C87G C103G A107U G133C A142G,≤ -4.2
18,C8G C18U G58A C79U C85U A98U G117A U146G,≤ -4.2
19,C8G C32A A60C G80C C96U C99A,≤ -4.2
20,C8G A28G G59C A73G A115C A120U G141C,≤ -4.2
21,C8G A20U G50C C79A G84A A98C,≤ -4.2

row,Variant,polymerase ribozyme fitness (log ratio)
1,U7G U44A,≤ -4.2
2,U7G G58U G94U A121U C149G,≤ -4.2
3,C8G A26U C27G G84A U109G C116G,≤ -4.2
4,C8G A30U U31G A40G A60G U77G C103U A138U,≤ -4.2
5,U7G A64U G84A G86U A110C A138G C149U,≤ -4.2
6,C8A G71C U77G G86A,≤ -4.2
7,C8A C85U G152U,≤ -4.2
8,C8G C32U G80U,-4.14
9,C8G A41C C43U C93U G143C,≤ -4.2
10,C8G A21U G65C A66C A119U,≤ -4.2
11,U7G C54U A113U C129G,≤ -4.2
12,U7G C95U C125U G140C C149A,≤ -4.2
13,U7G A39C C85G U111G A119G C123A,≤ -4.2
14,C8G G58A C85G,≤ -4.2
15,C8A C14A A17U C85U A89U,≤ -4.2
16,C8A A37U C85A C93U G141C A147C,≤ -4.2
17,C8G C14G A20U A37U C99A C123G U134G,≤ -4.2
18,C8G C14G A22C C35G C87G U90C,≤ -4.2
19,U7G A47C U55G U90G C93U C95G,≤ -4.2
20,C8A A40U A60U C114U,≤ -4.2
21,C8G G34C C35G C43A G94C G117U U144A,≤ -4.2

row,Variant,polymerase ribozyme fitness (log ratio)
1,C8A U33G A41U A49C G50C C51A C54A G71C C93A G124U G140C,≤ -4.2
2,C8G A47C G62A A66G U90C C95A C99U U139G,≤ -4.2
3,C8G A28G U61A U104A A110U A120G A138C,≤ -4.2
4,C8A A20C G50C U53A G58A A66G G84U G92U U134G,≤ -4.2
5,U7G C93G U139A,≤ -4.2
6,C8A U15A G25U A37C G42U A49G C95A C108G,≤ -4.2
7,U7G A28C C54U U56C U82G C85A C108U A115C,≤ -4.2
8,C8A A37G G94A C123G A150U,≤ -4.2
9,U7G C14A A60G U82G A91U G92C A107U C131U,≤ -4.2
10,C8A C14G U55A A91U C103U G126U,≤ -4.2
11,C8G C18A A23U A73U C93A C118A,≤ -4.2
12,C8G G42A C85G A98G A115G U135G,≤ -4.2
13,U7G A49C C51A C57G G83A A106G A107C C118U C123G C129G A150G,≤ -4.2
14,C8A G68U U82G C95A G100C,≤ -4.2
15,C8G G67A G94A C95U A106G,≤ -4.2
16,U7G C14G A52C U55C G80A G86U C87A,≤ -4.2
17,C8A A24U U33G G86U A91C C129G,≤ -4.2
18,U7G C27U G48C G59C C76U C79A G83U C93A,≤ -4.2
19,C8G C10G G59C A73G G88U,≤ -4.2
20,U7G G11C G25A C79A C93A U146C,≤ -4.2
21,C8G G88U C93U,≤ -4.2

row,Variant,polymerase ribozyme fitness (log ratio)
1,C8A A28U G71A C95U A110C,≤ -4.2
2,C8G C10G U31G C38U A49C G65U G71U G83U C105G,≤ -4.2
3,U7G U53A A97U A106C A122U U144A,≤ -4.2
4,C8A G46C C85U,≤ -4.2
5,U7G A24U C57U G83A G88C A107U U111G U134A A137C G140C G143C,≤ -4.2
6,U7G C10U C35U A64G C96A C129A,≤ -4.2
7,C8G C63U G68A G92A A107U A142G,≤ -4.2
8,C8G A52U C95U U104G G140U,≤ -4.2
9,C8G G50A C54G U56A G74C C87A C116A G141C,≤ -4.2
10,C8G U9C C76A A91C C108U,≤ -4.2
11,C8A G83A G117U C129G,≤ -4.2
12,C8A A21G A30C G88U A98G C105G,≤ -4.2
13,C8G A12G A22G U33A G48A A89U,≤ -4.2
14,U7G A26U G50C G74C G94C C116A C129U A142U,≤ -4.2
15,C8G A20C C32U A40G G65C G83A U101C,≤ -4.2
16,C8A U13G C14U U45A G50C G59C C69U,≤ -4.2
17,C8G C43G A52G C93G C114G A121G,≤ -4.2
18,C8A C18A C36G U53A U55G A142U U144G,≤ -4.2
19,C8G A17G U55A G112A G141C,≤ -4.2
20,C8G A21G C93U C103U,≤ -4.2
21,U7G G50A A66C G83A C85A,≤ -4.2

# Reference: the RNAGym collection of RNA variant scans (doi:10.1073/pnas.2313332121)
